Assay results: PubChem BioAssay AID2528 (National Center for Advancing Translational Sciences (NCATS), 2010)
Where “and” joins values, the source holds several entries; their conditions need not be identical. Identical values can stand only once. In all, about 350,000 compounds went through this assay and about 700 (0.2%) were called active. The shares of active, inactive and inconclusive entries below differ from those in the screen. Calls follow the shape of the dose curve; as a rule, active = well fitted inhibition curve with a large enough effect; inconclusive = small, poorly fitted or top-dose-only effect; inactive = flat fitted curve, though single readings scatter. No potency is given beside an inconclusive call; the fits are too rough.

Molecular target: RecQ-like DNA helicase BLM (Homo sapiens) (UniProt P54132)
Sequence of UniProt P54132 (P54132 whole entry, looked up): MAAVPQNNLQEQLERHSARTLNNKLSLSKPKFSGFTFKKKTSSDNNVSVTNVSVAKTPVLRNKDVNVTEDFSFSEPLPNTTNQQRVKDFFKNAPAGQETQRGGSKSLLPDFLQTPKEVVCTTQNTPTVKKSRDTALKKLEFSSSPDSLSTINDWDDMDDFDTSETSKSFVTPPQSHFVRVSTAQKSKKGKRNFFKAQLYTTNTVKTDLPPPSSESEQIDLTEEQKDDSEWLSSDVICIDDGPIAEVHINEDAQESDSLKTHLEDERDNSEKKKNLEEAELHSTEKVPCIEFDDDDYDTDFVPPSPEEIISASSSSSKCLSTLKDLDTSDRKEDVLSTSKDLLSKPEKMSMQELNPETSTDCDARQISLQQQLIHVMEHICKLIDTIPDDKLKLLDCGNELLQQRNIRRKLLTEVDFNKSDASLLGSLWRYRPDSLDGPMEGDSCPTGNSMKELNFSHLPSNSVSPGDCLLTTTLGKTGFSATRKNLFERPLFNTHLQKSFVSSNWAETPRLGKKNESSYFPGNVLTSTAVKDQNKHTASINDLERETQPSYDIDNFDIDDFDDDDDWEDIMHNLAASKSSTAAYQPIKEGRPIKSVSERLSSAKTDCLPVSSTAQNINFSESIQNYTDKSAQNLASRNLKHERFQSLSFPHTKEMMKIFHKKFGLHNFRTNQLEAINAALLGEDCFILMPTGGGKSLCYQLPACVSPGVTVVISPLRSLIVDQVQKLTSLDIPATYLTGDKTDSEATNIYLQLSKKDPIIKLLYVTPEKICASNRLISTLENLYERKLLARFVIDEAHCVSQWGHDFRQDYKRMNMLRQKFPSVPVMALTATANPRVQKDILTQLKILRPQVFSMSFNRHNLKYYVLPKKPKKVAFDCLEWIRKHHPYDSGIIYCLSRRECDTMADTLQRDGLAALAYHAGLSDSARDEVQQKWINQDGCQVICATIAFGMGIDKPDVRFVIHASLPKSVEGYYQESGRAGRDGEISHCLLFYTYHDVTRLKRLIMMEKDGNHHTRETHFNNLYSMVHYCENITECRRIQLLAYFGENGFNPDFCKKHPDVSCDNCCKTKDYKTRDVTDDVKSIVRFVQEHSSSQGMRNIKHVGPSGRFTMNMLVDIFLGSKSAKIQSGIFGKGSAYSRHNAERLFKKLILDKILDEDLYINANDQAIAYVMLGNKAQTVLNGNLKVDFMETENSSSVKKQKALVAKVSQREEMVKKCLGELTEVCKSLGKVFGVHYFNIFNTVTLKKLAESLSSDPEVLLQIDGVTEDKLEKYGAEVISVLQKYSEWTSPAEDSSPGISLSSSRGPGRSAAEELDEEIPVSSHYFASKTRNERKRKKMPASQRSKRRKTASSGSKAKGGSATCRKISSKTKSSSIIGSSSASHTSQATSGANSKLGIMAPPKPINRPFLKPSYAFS
Assay: qHTS Assay for Inhibitors of Bloom's syndrome helicase (BLM); also: nearly all actives have a fitted effect of over 35% in size;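 as to activity change, negative = inhibition: plate controls were vehicle for no effect and no enzyme for full effect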
Conditions: recombinant BLM DNA unwinding, fluorescence dequenching; series mostly up to 56.1 µM; activity change, negative = inhibition: at the top concentration
Potency is read from the fitted curve at half-maximal effect; tags tell the direction and shape of the fitted curve.

| SMILES | Potency | activity change, negative = inhibition |
| --- | --- | --- |
| C/C1=C2/[N-]C(C(CC(N)=O)[C@@]2(C)CCC(=O)NCC(C)OP(=O)([O-])O[C@H]2[C@@H](O)[C@@H](n3cnc4cc(C)c(C)cc43)O[C@@H]2CO)[C@]2(C)N=C(/C(C)=C3N=C(/C=C4N=C1C(CCC(N)=O)C\4(C)C)[C@@H](CCC(N)=O)[C@]\3(C)CC(N)=O)[C@@H](CCC(N)=O)[C@]2(C)CC(N)=O.CC(=O)O.[Co] (stereo not given in full) | active: 25.1 µM |  |
| COc1ccc(C2/C=C\CN(C(=O)C3CC3)C(Cc3ccccc3)C(=O)N2Cc2ccc(F)cc2)cc1 (stereo not given) |  | inactive: -11% |
| N#C/C(=C/c1ccc(O)c(O)c1)c1nc2ccccc2[nH]1 | inconclusive [inhibitor, single point] |  |
| CCNC(=O)COC(=O)c1cc(-c2ccco2)nc2ccccc12 | inconclusive [inhibitor, partial curve] |  |
| N#C/C(=C\c1ccc(O)c(O)c1)C(=O)Nc1cccc2ncccc12 | active: 12.6 µM |  |
| CC(=O)Oc1cc2cccc(OC(C)=O)c(=O)c2c(OC(C)=O)c1OC(C)=O | inconclusive [inhibitor, single point] |  |
| NC(CO)C(=O)NNCc1ccc(O)c(O)c1O (stereo not given) | inactive |  |
| COc1ccccc1NC(=O)CSc1nc(-c2ccc(C(C)(C)C)cc2)c(C#N)c(=O)[nH]1 | inconclusive [inhibitor, single point] |  |
| O=C(CSc1nc2sc3c(c2c(=O)n1-c1ccccc1)CCCC3)N/N=C/c1ccccc1C(=O)O | inconclusive [inhibitor, single point] |  |
| O=C(O)/C=C/C(=O)Nc1ccc(OC(F)(F)Cl)cc1 |  | inactive: 5.04% |
| COC(=O)c1cc2oc3ccccc3c2n1Cc1ccc(C)cc1 |  | inactive: -1.17% |
| O=C(CSc1nc(NS(=O)(=O)c2ccccc2)cc(=O)[nH]1)Nc1ccc(F)cc1 | inconclusive [inhibitor, single point] |  |
| CCNc1ccc(Br)cc(C(=O)/C=C/c2ccc(Cl)cc2)c1=O |  | inactive: -19.7% |
| O=C1C(SCCO)=C(SCCO)C(=O)c2ccccc21 | active: 7.08 µM and active: 8.91 µM |  |
| Cc1ccc(NC(=O)CN2C(=O)S/C(=C\c3cccn3-c3cccc(C(=O)O)c3)C2=O)c(C)c1 | inconclusive [inhibitor, single point] |  |
| COCCOC(=O)C1=C(C)Nc2cc(=O)[nH]c(=O)n2C1c1cccc([N+](=O)[O-])c1 (stereo not given) |  | inactive: -1.19% |
| COc1ccc(NC(=O)Cn2c(=O)n(Cc3ccc4c(c3)OCO4)c(=O)c3ccc(C(=O)NC4CCCCC4)cc32)cc1 |  | inactive: -4.43% |
| COc1ccc(N2CCN(C(C)C(=O)N3CC(C)OC(C)C3)CC2)cc1 (stereo not given) |  | inactive: -0.975% |
| Cc1nn(S(=O)(=O)c2ccc(C(C)(C)C)cc2)c(C)c1S(=O)(=O)N1CCCCCC1 |  | inactive: 3.14% |
| O=C(NC1(O)C(=O)c2ccccc2C1=O)c1c(Cl)cccc1Cl | inconclusive [inhibitor, single point] |  |
| O=C1CCCC2=C1C(c1ccc(O)c(O)c1)Nc1ccc3ncccc3c12 (stereo not given) | inconclusive [inhibitor, single point] |  |
| O=c1cc(-c2ccccc2Cl)oc2c(NS(=O)(=O)c3cc(Cl)cc(Cl)c3O)ccc(O)c12 | inconclusive [inhibitor, single point] |  |
| Oc1ccccc1/C=N/Nc1cc(N2CCCC2)nc(N2CCCC2)n1 | inconclusive [inhibitor, partial curve] |  |
| O=C(Cn1cnc([N+](=O)[O-])n1)N/N=C/c1cc(Cl)ccc1O |  | inactive: 0.462% |

| SMILES | Potency | activity change, negative = inhibition |
| --- | --- | --- |
| COc1ccc(-c2csc(/C(C#N)=C(\O)CSc3nccn3C)n2)cc1OC | inconclusive [inhibitor, single point] |  |
| COc1ccc(-c2cc3ccccc3oc2=O)cc1NC(=O)c1ccc(Br)o1 | inconclusive [inhibitor, partial curve] |  |
| O=C(Nc1cccc(C(F)(F)F)c1)c1ccc2nc(-c3ccco3)c(-c3ccco3)nc2c1 | inconclusive [inhibitor, partial curve] |  |
| O=C(c1cc(-c2ccco2)on1)N1CCc2ccccc2C1 | inconclusive [inhibitor, partial curve] |  |
| N#Cc1c(SCC(=O)Nc2nncs2)sc2c(O)cc(=O)[nH]c12 | active: 11.2 µM |  |
| CCOC(=O)C1=C(C)N=c2s/c(=C/c3ccco3)c(=O)n2C1c1cccc(OC)c1 (stereo not given) | inconclusive [inhibitor, single point] |  |
| CC(=O)N1CCOc2cc(S(=O)(=O)Nc3cc(C(F)(F)F)ccc3Cl)c(C)cc21 |  | inactive: -2.07% |
| COc1ccc(C(=O)OCC(=O)NCc2ccco2)cc1OC | inconclusive [inhibitor, single point] |  |
| N#C/C(=C\c1ccc(-c2ccc(Cl)c(C(=O)O)c2)o1)c1nc2ccccc2[nH]1 | inconclusive [inhibitor, single point] |  |
| Cc1csc(N/N=C/c2ccc(O)c([N+](=O)[O-])c2)n1 | inconclusive [inhibitor, single point] |  |
| Cc1ccc(-c2nc3c(c(=O)[nH]c(=O)n3Cc3ccccc3)n2C)o1 | inconclusive [inhibitor, partial curve] |  |
| Cc1ccc(NS(=O)(=O)c2ccc(-c3cnc(C4CC4)o3)cc2)cc1N(C)C |  | inactive: -3.82% |
| COc1cccc(/C=N\NC(=O)C2C(=O)NCC2c2ccccc2)c1O (stereo not given) |  | inactive: -1.29% |
| Cc1c(OCC(=O)NCc2ccccn2)ccc2c3c(c(=O)oc12)CCCC3 | inconclusive [inhibitor, single point] |  |
| CCOC(=O)C(=CNc1cc(Cl)c(-c2ccco2)c(Cl)c1)C(=O)OCC |  | inactive: -11.6% |
| S=C(Nc1cccc(Cl)c1)Nc1cccc2cnccc12 | active: 3.98 µM |  |
| CCN(c1ccc(NC(=O)COC(=O)c2cccs2)cc1)C(C)C |  | inactive: -4.81% |
| O=c1cc(CSc2nnnn2-c2ccc(O)cc2)nc2sccn12 | inconclusive [inhibitor, partial curve] |  |
| O=C(Cc1nn[nH]n1)c1ccccc1O |  | inactive: -1.46% |
| Cc1ccccc1-c1nc2c3c(-c4ccccc4)c(-c4ccccc4)oc3ncn2n1 |  | inactive: 0.801% |
| CC(C)CCNC(=O)c1cnn2c(C(F)(F)F)cc(-c3ccco3)nc12 | inconclusive [inhibitor, single point] |  |
| COCCn1c(N)c(S(=O)(=O)c2cccs2)c2nc3ccccc3nc21 | inconclusive [inhibitor, single point] |  |
| O=c1[nH]cnc2nc(-c3ccccc3)c(-c3ccccc3)nc12 |  | inactive: 0.778% |
| Nc1ncnc2oc(-c3ccco3)c(-c3ccco3)c12 | active: 15.8 µM |  |

| SMILES | Potency | activity change, negative = inhibition |
| --- | --- | --- |
| CC(C)(C)c1ccc(C(=O)N/C(=C\c2cccc([N+](=O)[O-])c2)C(=O)Nc2cccc(C(=O)O)c2)cc1 | inconclusive [inhibitor, single point] |  |
| O=C(Nc1ccc(N2CCOCC2)cc1)Nc1ccc2nc(-c3ccco3)c(-c3ccco3)nc2c1 | inconclusive [inhibitor, full curve] |  |
| COc1cc(/C=C2\SC(=Nc3ccccc3)NC2=O)cc(Cl)c1O |  | inactive: -10.5% |
| Cc1cc(=O)n2[nH]c(-c3ccsc3-n3c(C)ccc3C)cc2n1 | active: 7.94 µM |  |
| NC(=O)COc1ccc(-n2cnnn2)cc1 | inconclusive [inhibitor, partial curve] |  |
| Cc1ccc(NC(=O)Cc2coc3ccc(C(C)C)cc23)c(C)c1 |  | inactive: -2.95% |
| O=S(=O)(O)c1ccc2c(N=Nc3ccc(S(=O)(=O)O)c4ccccc34)c(O)c(S(=O)(=O)O)cc2c1 |  | inactive: -2.31% |
| O=[N+]([O-])c1ccc(N/N=C/c2ccc[nH]2)cc1 | inconclusive [inhibitor, partial curve] |  |
| O=C1C2CC=C(Cl)CC2C(=O)N1CCCCCCN1C(=O)C2CC=C(Cl)CC2C1=O (stereo not given) | inconclusive [inhibitor, single point] |  |
| COc1cccc2c(SCC(=O)N/N=C/c3ccc(O)c(O)c3)cc(C)nc12 | inconclusive [inhibitor, partial curve] |  |
| O=c1c2cc([N+](=O)[O-])ccc2nc2n1CCCC2 |  | inactive: 0.203% |
| O=C(Nc1ccc(Br)cc1)N1CCC(CN2CCCC2)CC1 |  | inactive: 1.68% |
| CNCc1ccccc1Sc1ccc(O)c(O)c1 |  | inactive: -1.75% |
| O=C(CCN1C(=O)/C(=C/c2ccc(Cl)cc2)SC1=S)Nc1cccc(C(=O)O)c1 | inconclusive [inhibitor, single point] |  |
| O=C(/C=C/c1cccs1)Nc1scc(-c2ccccc2)c1C(=O)O | inconclusive [inhibitor, single point] |  |
| O=S(=O)(NC(=NCc1ccccc1)c1ccccc1)c1ccc(Br)cc1 | inconclusive [inhibitor, single point] |  |
| COc1cc(C2NC(=O)NC(C)=C2C(=O)OCc2ccccc2)ccc1O (stereo not given) | active: 14.1 µM |  |
| Cc1cnc(C(=O)N2CCCC(C(=O)c3ccc(C(F)(F)F)cc3)C2)cn1 (stereo not given) | inconclusive [inhibitor, single point] |  |
| O=C(Cc1ccccc1)Nc1cccc(N2CCCC2)c1 | inconclusive [inhibitor, single point] |  |
| Nc1ccc2c(c1)CC(=O)c1ccccc1S2 | inconclusive [inhibitor, single point] |  |
| COc1ccc(/C=N\NC(=O)c2ccc([N+](=O)[O-])c(C)c2)cc1COc1ccccc1C(N)=O | inconclusive [inhibitor, single point] |  |
| COc1cccc(Nc2nc(N)c([N+](=O)[O-])c(NCc3ccco3)n2)c1 | active: 3.55 µM |  |
